Reference: PubChem BioAssay AID1347073 (National Center for Advancing Translational Sciences (NCATS), 2019)
About 200 (0.44%) of roughly 45,000 compounds were called active. Not shown: some 7% with an inconclusive outcome. The call rests on the fitted dose curve; in most records, active means well fitted activation curve with a large enough effect; inconclusive means small, poorly fitted or top-dose-only effect; inactive means no such curve, though single readings can be large or run the other way. This is one part of the list.

test: qHTS of TDP-43 Inhibitors: NCGC Sytravon Library Screen; conditions: yeast TDP-43 toxicity rescue, BacTiter-Glo growth, 24 h; series mostly up to 46.1 µM; growth rescue (activation): at the top concentration; further: 0% is about no effect; nearly all actives have a fitted effect of over 55% in size
Procedure, shortened: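 TDP-43-expressing yeast, pregrown in raffinose, seeded at OD600 0.02 in galactose medium with compound for 24 hr at 30 deg C. Growth read by BacTiter-Glo luminescence, so rescue of toxicity appears as activation.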

SMILES | growth rescue (activation)
COc1ccc(C(=O)NC(=S)NCc2cccnc2)cc1OC | inactive: 11.5%
COc1ccc(S(=O)(=O)N2CC(C)N(C(=O)N3CCOCC3)C2)cc1 (stereo unspecified) | inactive: 6.85%
COc1cc(NC(=O)COc2ccccc2Cl)ccc1NC(=O)C(C)C | inactive: -7.45%
CCOC(=O)N1CCC(NC(=O)c2cc(C(=O)NC3CCN(Cc4ccccc4)CC3)ccc2CO)CC1 | inactive: -11.1%
Cc1ccc(N2C(=O)N(c3ccc(C)cc3)C3CS(=O)(=O)CC32)cc1 (stereo unspecified) | inactive: -5.3%
Cc1c(CC(=O)N[C@@H](C)C(=O)O)c(=O)oc2c(C)c3occ(-c4ccccc4)c3cc12 | inactive: -13.8%
Cc1ccc2cc(C)c3nnc(SCc4ccc(C(=O)O)cc4)n3c2c1C | inactive: 29.6%
CCN(C(=O)COC(=O)/C=C/c1ccc(F)cc1)C1CCCCC1 | inactive: 29.2%
CCOC(=O)CC(NC(=O)Cc1ccc(F)cc1)c1ccccc1Cl (stereo unspecified) | inactive: 7.84%
Cc1ccc(NC(=O)CN(C)C(=O)c2cccc(Br)c2)cc1 | inactive: 0.342%
O=C(/C=C/c1ccco1)N1CCc2ccccc21 | inactive: 11.8%
Cc1ccc(C(=O)OCC(=O)N2CCCC2)cc1 | inactive: 7.39%
Cc1ccc(NS(=O)(=O)c2ccc(CCC(=O)NCc3ccccn3)cc2)cc1 | inactive: -2.63%
Cc1ccc(N2CCN(/N=C/c3cccnc3)CC2)cc1 | inactive: -7.94%
Cc1ccc(CN(C)C(=O)c2cccc(S(=O)(=O)N3CCc4ccccc43)c2)cc1 | inactive: -4.88%
CC1CCCCC1NC(=O)NC(=O)COC(=O)c1nccnc1N (stereo unspecified) | inactive: 21.9%
O=C(NC12CC3CC(CC(C3)C1)C2)c1cc(F)c(F)c(F)c1F | inactive: 1.27%
N=c1c2ccccc2nnn1-c1cccc(C(F)(F)F)c1 | inactive: 3.77%
CCOc1ccc(N(CC(=O)NCCSc2ccccn2)S(=O)(=O)c2ccc(Cl)cc2)cc1 | inactive: -11.9%
COC(=O)c1cc(C(=O)OC)cc(S(=O)(=O)Nc2ccc(Cl)c(N)c2)c1 | inactive: 16.5%
O=C(CSC1=NCCS1)NC(NC(=O)CSC1=NCCS1)c1ccccc1 | inactive: -8.45%
CCCCCn1c(=O)[nH]c2cc(C(=O)NCCCN3CCCCC3CC)ccc2c1=O (stereo unspecified) | inactive: 12.6%
C/C(=N/NC(=O)c1cccs1)c1cccs1 | inactive: 10.4%

SMILES | growth rescue (activation)
O=C(c1ccco1)N1CCN(Cc2nnc(-c3cccc(Cl)c3)o2)CC1 | inactive: 23.5%
CCOc1ccc(CN2CCNC(=O)C2CC(=O)NC2CCOCC2)cc1 (stereo unspecified) | inactive: -5.66%
Cc1ccccc1OCC(=O)N/N=C/c1sc(=O)n(Cc2cccc(C(=O)O)c2)c1Cl | inactive: 12.3%
CCNC(=O)C1(C)CCCN1Cc1ccccc1Cl (stereo unspecified) | inactive: -3.16%
Cn1cc(/C=C2\SC(=S)N(N3CCOCC3)C2=O)c2ccccc21 | inactive: 8.21%
COc1ccccc1C(NC(=O)C1CCN(CCOc2ccc3ccccc3c2)CC1)c1ccccn1 (stereo unspecified) | inactive: -3.89%
CCOc1ccc(NC(=O)N2CCC(c3nc4ccccc4[nH]3)CC2)cc1 | inactive: -4.51%
Cc1c(C(=O)NCc2ccc3c(c2)OCO3)cccc1[N+](=O)[O-] | inactive: 7.53%
COc1cc(OC)cc(C(=O)NC(C(=O)Nc2ccc(N3CCOCC3)cc2)C(C)C)c1 (stereo unspecified) | inactive: 9.21%
Cc1cccc(OCC(=O)Nc2ccccc2F)c1 | inactive: 11.7%
CCOC(=O)Cc1nn[nH]n1 | inactive: -1.12%
O=C(NCc1ccccn1)C(=O)Nc1ccccc1 | inactive: -0.203%
Cc1ccc(S(=O)(=O)/N=C(/Nc2cccc(O)c2)c2ccccc2)cc1 | inactive: 0.159%
O=C(CSc1nnc(-c2ccncc2)n1Cc1ccco1)Nc1cccc(O)c1 | inactive: -10.3%
CC1(C)OC(=CC=Nc2ccc(Cl)cc2)OC1(C)C | inactive: 16.8%
CC(C)N(C(=O)COC(=O)c1cccnc1Cl)c1ccccc1 | inactive: 18.9%
CCN(CC)S(=O)(=O)c1ccc(NC(=O)CCNC(=O)c2ccccc2)cc1 | inactive: -14.6%
COc1ccc(OC(=O)/C=C/c2ccc([N+](=O)[O-])cc2)cc1 | inactive: 10.9%
Cc1cccc(C)c1NC(=O)C1CCCN1C(=O)Nc1cccc(F)c1 (stereo unspecified) | inactive: 5.54%
CCn1c(SCc2nc3ccccc3c(=O)[nH]2)nc2ccccc2c1=O | inactive: 5.7%
C=CCn1c(-c2ccc([N+](=O)[O-])cc2)n[nH]c1=S | inactive: -9.01%
CCCSc1ncc(Cl)c(C(=O)Nc2ccc(S(=O)(=O)N3CCCC(C)C3)cc2)n1 (stereo unspecified) | inactive: 8.35%
CCOc1ccccc1CN1CCN(Cc2cccc3nonc23)CC1CCO (stereo unspecified) | inactive: -14.2%

SMILES | growth rescue (activation)
Cc1cccc(NC(=S)N(CCN(C)C)Cc2cc3cc(C)cc(C)c3[nH]c2=O)c1 | inactive: 4.63%
Cc1ccc(C2C(C(=O)c3sc(C)nc3C)=C(O)C(=O)N2CCN2CCOCC2)o1 (stereo unspecified) | inactive: 0.462%
COc1ccc2nc(N3CCCCC3)c(/C=C3\SC(=S)NC3=O)cc2c1 | inactive: 13.7%
CC1CCCCC12NC(=O)N(CC(=O)NCCc1ccccc1)C2=O (stereo unspecified) | inactive: 5.64%
CCS(=O)(=O)N1Cc2ccccc2CC1C(=O)OCC(=O)N(C(C)C)C(C)C (stereo unspecified) | inactive: 12.4%
COc1ccc(-n2c(SCC(=O)N3CCCC(C)C3)nnc2-c2cccnc2)cc1 (stereo unspecified) | inactive: 18%
COc1ccccc1NS(=O)(=O)c1ccc2oc(SCC(C)=O)nc2c1 | inactive: 3.69%
CC(Sc1nc2ccccc2c(=O)n1CCCN1CCOCC1)C(=O)N1CCc2ccccc21 (stereo unspecified) | inactive: 3.45%
CCCCC(=O)Nc1cccc(-c2cn3ccsc3n2)c1 | inactive: 0.259%
CN(C)c1ccc(CN(Cc2ccco2)C(=O)COc2ccc(F)cc2)cc1 | inactive: 2.09%
COc1ccc(/C=N/Nc2nncc3ccccc23)cc1 | inactive: -28%
Cn1ccc(C(=O)NC(=S)N2CCSCC2)n1 | inactive: -0.738%
O=C(c1ccc(-c2nc3ccccc3s2)s1)N1CCOCC1 | inactive: -2.91%
Cc1ccccc1NS(=O)(=O)c1ccc(C(=O)N2CCN(c3ccccn3)CC2)cc1 | inactive: 2.04%
CCOC(=O)CSc1nc(C)cc2c1C(=O)OC2 | inactive: 10.9%
CCOC(=O)C1(C)CCCN(C(=O)c2ccccc2C(F)(F)F)C1 (stereo unspecified) | inactive: 5.74%
COc1ccccc1C1(CCN=Cc2ccc(N(C)C)cc2)CCOC(C)(C)C1 (stereo unspecified) | inactive: -21.7%
CC1CCN(S(=O)(=O)c2ccc3c(c2)CCN3C(=O)Nc2cccc(Br)c2)CC1 | inactive: -9.71%
CCC(=O)c1ccc(OCC(=O)Nc2nc(C)cs2)cc1 | inactive: 42.3%
COc1ccc(C(=S)N2CCOCC2)cc1OS(=O)(=O)c1ccccc1[N+](=O)[O-] | inactive: 2.41%
CCOc1ccccc1Nc1ccnc2cc(Cl)ccc12 | inactive: -13.2%
CC(=O)Nc1cccc(C(=O)N/N=C/c2cccc(C)n2)c1 | inactive: -3.3%
COc1ccccc1CNc1ccc(Br)cn1 | inactive: -0.94%

SMILES | growth rescue (activation)
Cc1ccc(C)c(NC(=O)COC(=O)c2ccc[n+]([O-])c2)c1 | inactive: 13.2%
O=C(NCc1cnc2ccccn12)C1CCC(=O)N(Cc2ccccc2F)C1 (stereo unspecified) | inactive: 15.8%
COC(=O)c1c(C)[nH]c(C(=O)C(C)OC(=O)C2=NNC(=O)CC2)c1C (stereo unspecified) | inactive: 25.3%
CC(=O)Oc1ccc(C(=O)Nc2ccc(S(=O)(=O)NCC3CCCO3)cc2)cc1 (stereo unspecified) | inactive: 18.1%
CN1C(=O)c2cccc3c(S(=O)(=O)Nc4ccccc4F)ccc1c23 | inactive: 9.64%
Clc1ccc(Nc2c(-c3cccs3)nc3ccc(Cl)cn23)cc1 | inactive: -4.91%
COC(=O)Cc1cc(=O)[nH]c(/N=C(\N)Nc2ccc(C)cc2C)n1 | inactive: 6.61%
Cc1ccc(NC(=S)N2CCOCC2)cc1 | inactive: 11.7%
COc1ccc(C(=O)N/N=C/c2ccc(OC(=O)c3cccc4ccccc34)c([N+](=O)[O-])c2)cc1 | inactive: 15.9%
CC(=O)NC1C(=O)N=C(SCC(=O)Nc2ccc(C(F)(F)F)cc2Cl)NC1=O (stereo unspecified) | inactive: -11.4%
CC(=O)Nc1ccccc1OCc1cnc(Cl)s1 | inactive: 4.43%
COc1ccc(OC)c(C(O)c2ncc(-c3ccccc3Cl)[nH]2)c1 (stereo unspecified) | inactive: 5.59%
O=C1C(Cl)=C(NS(=O)(=O)c2ccc([N+](=O)[O-])cc2)C(=O)c2ccccc21 | inactive: 1.59%
C=CCNC(=O)CSc1nnc(-c2ccccc2Br)n1-c1cccc(C(F)(F)F)c1 | inactive: 10.2%
Cc1ccc(C(=O)NCC(=O)OCC(=O)N2CCCc3ccccc32)cc1 | inactive: 14.1%
COc1ccc(C(=O)c2c(C)oc3ccc(O)cc23)c(OC)c1 | inactive: 9.31%
CCCn1nnnc1NCc1cccc(Cl)c1 | inactive: 11.8%
COc1ccc(C(NC(=O)C2CCN(CCOc3ccccc3)CC2)c2ccccn2)cc1 (stereo unspecified) | inactive: 1.98%
OCc1nc2ccc(Cl)cc2[nH]1 | inactive: 26.2%
CN(C)CCNc1ccc(-c2nn(C)c(=O)c3ccccc23)cc1[N+](=O)[O-] | inactive: -3.85%
COc1ccccc1C(NC(=O)C1CCN(CCOc2ccc(Cl)cc2Cl)CC1)c1ccccn1 (stereo unspecified) | inactive: -2.34%
COc1ccccc1NC(=O)N(Cc1ccco1)Cc1cc2cccc(C)c2[nH]c1=O | inactive: -32.8%
CN(C(=O)CC1C(=O)NCCN1Cc1ccc(F)cc1)C1CCOCC1 (stereo unspecified) | inactive: -8.59%

SMILES | growth rescue (activation)
O=C(COc1ccccc1C(=O)O)Nc1ccc(SC(F)F)cc1 | inactive: -10.4%
O=C(NCCN1CCNC1=O)C1CCC(=O)N(CCc2ccccc2)C1 (stereo unspecified) | inactive: 11.3%
C=CCOc1ccc(CNCCO)cc1OCC | inactive: -15.1%
CC1CCC(NS(=O)(=O)c2ccc(Cl)s2)CC1 (stereo unspecified) | inactive: 19.8%
C[C@H](NC(=O)c1ccccc1Cl)C(=O)NCCc1ccc(S(N)(=O)=O)cc1 | inactive: -3.68%
O=C(COc1ccc(Br)cc1)Nc1ccccc1C(=O)N1CCOCC1 | inactive: 4.42%
O=C(NCCCn1ccnc1)C1CCCN(S(=O)(=O)c2ccc(F)cc2)C1 (stereo unspecified) | inactive: 6.57%
O=S(=O)(c1ccc2ccccc2c1)N1CCOCC1 | inactive: 5.47%
CC(C)(C)Cc1nnc(NC(=O)CN2C(=O)c3ccccc3C2=O)s1 | inactive: 5.13%
Cc1cccc(CC(=O)Nc2ccon2)c1 | inactive: 9.64%
Cc1cc(F)ccc1C(O)c1ncc(-c2ccc(Cl)cc2)[nH]1 (stereo unspecified) | inactive: 11.2%
COc1ccc(NC(=S)NC2CC3CCC2C3)c(OC)c1 (stereo unspecified) | inactive: -6.79%
CC(=O)c1c(C)[nH]c(C(=O)COC(=O)c2cccnc2Cl)c1C | inactive: 22.2%
Cc1ccc(-c2csc(NC(=O)N3CCOCC3)n2)cc1 | inactive: 25.2%
CC(Sc1nnc(-c2ccccc2)c(-c2ccccc2)n1)C(=O)N1CCc2ccccc21 (stereo unspecified) | inactive: 12.1%
Cn1c(SCC(N)=O)nnc1-c1cnccn1 | inactive: -1.96%
Cn1c(S(=O)(=O)O)nc2ccccc21 | inactive: -1.82%
CCN(CC)C(C(=O)Nc1ccc2c(c1)OCO2)c1ccccc1 (stereo unspecified) | inactive: -6.22%
O=C(O)C1CCN(C(=O)c2cccc3ccccc23)CC1 | inactive: 5.59%
